The campaign covered roughly 45,000 compounds. About 65 (0.1%) were called active. Calls come from the whole dose curve; as a rule, active = well fitted activation curve with a large enough effect; inconclusive = small, poorly fitted or top-dose-only effect; inactive = no such curve, though single readings can be large or run the other way. This is one part of the list.
These compounds were tested against Galactocerebrosidase (Homo sapiens) (UniProt P54803) (assay: A Novel Cell-Based Assay to Identify Small Molecules for B -Galactocerebrosidase). Settings: 145M-Twi-hGALC-G270D cells (Twitcher mouse brain line with human GALC G270D), HMU-beta-Gal fluorescence, 48 h; series mostly up to 57.5 µM; activation: at the top concentration.
Sequence of UniProt P54803 (P54803 whole entry, looked up): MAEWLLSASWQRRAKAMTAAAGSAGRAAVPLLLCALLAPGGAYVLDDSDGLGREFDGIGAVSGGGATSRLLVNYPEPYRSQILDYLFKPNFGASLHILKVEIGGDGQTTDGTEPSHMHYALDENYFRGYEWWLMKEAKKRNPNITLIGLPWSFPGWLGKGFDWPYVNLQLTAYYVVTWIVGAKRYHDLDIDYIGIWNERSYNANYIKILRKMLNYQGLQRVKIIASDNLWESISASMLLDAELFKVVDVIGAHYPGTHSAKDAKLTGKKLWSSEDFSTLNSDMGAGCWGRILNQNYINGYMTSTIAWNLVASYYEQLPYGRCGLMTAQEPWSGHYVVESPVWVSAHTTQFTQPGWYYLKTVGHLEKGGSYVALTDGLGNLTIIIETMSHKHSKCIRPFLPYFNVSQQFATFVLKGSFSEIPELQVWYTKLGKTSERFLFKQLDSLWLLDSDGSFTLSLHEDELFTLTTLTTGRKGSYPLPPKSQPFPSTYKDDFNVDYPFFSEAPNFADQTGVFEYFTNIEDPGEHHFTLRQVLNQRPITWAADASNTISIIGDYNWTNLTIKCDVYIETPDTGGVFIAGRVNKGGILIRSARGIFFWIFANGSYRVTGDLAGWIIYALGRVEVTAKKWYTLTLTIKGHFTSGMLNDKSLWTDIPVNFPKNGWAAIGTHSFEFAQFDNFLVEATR
How it was run: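 Fluorogenic HMU-b-Gal hydrolysis (0.1 mM final, pH 5.2 citrate-phosphate with 1 mg/mL sodium taurocholate; carbonate stop buffer) measures mutant GALC activity after compound treatment of live 145M-Twi Twitcher brain cells stably carrying human GALC-G270D, with wild-type GALC line alongside; activation sought.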
Note: 0% is about no effect; nearly all actives have a fitted effect of over 65% in size.

Structure (SMILES) | activation
COc1ccc(S(=O)(=O)n2nc(C)c(S(=O)(=O)N3CCCCCC3)c2C)cc1C | inactive: -5.56%
CC(=O)N1CCOc2cc(S(=O)(=O)NCc3ccccc3Cl)c(Cl)cc21 | inactive: -15.3%
CCc1ccc(NC(=O)Cn2c(=O)n(-c3ccccc3C)c(=O)c3c2c2cc(OC)ccc2n3C)cc1 | inactive: 4.13%
COc1ccc(NC(=O)CSc2nc3ccccc3nc2N2CCCCC2)cc1 | inactive: -14.6%
O=C(CN1C(=O)CSc2ccc(S(=O)(=O)N3CCOCC3)cc21)NCCCN1CCCCC1 | inactive: -13.2%
Cc1ccc(C)c(NC(=O)Cn2c(SCC(=O)NCc3ccccc3)nc3ccccc32)c1 | inactive: -19%
Cc1nc(-c2ccc(F)cc2)sc1CCNC(=O)c1cccs1 | inactive: -3.86%
Cc1ccc(N(CC(=O)N2CCN(c3ccccc3)CC2)S(=O)(=O)c2c(C)noc2C)cc1 | inactive: -13.2%
CC(C)CCCC(C)CCCC(C)CCCCC(C)CCCC(C)CCCC(C)C (configuration not stated) | inactive: -12.3%
CCOc1ccc(N(CC(=O)Nc2ccc(OC)cc2)S(=O)(=O)c2ccc(Cl)cc2)cc1 | inactive: 6.46%
CC(C)Oc1ccc(C(=O)NCC(c2ccc(N(C)C)cc2)N2CCc3ccccc32)cc1 (configuration not stated) | inactive: -14.8%
Cc1ccc(-c2noc(-c3nnn(CC(=O)Nc4ccc(C)c(Cl)c4)c3N)n2)cc1 | inactive: -12%
CCOC(=O)c1ccccc1NC(=O)N1CCC(CN2CCOCC2)CC1 | inactive: -7.32%
CCOC(=O)c1[nH]c2c(c1Cc1ccccc1)C(=O)CC(c1ccccc1)C2 (configuration not stated) | inactive: -27.1%
CCOc1ccc(NC(=O)Cn2nc3c(cc2=O)CC(C)CC3)cc1 (configuration not stated) | inactive: -1.47%
CCN1CCN(C(c2ccccc2Cl)c2sc3nc(-c4ccco4)nn3c2O)CC1 (configuration not stated) | inactive: 1.27%
Cc1ccc2c(c1)cc1c(=O)n(Cc3ccccc3Cl)nc(C)n12 | inactive: -11%
O=C(CCSCCc1ccccn1)Nc1ccc(Cl)cc1 | inactive: -6.87%
Cc1ccc2c(C)c(C(=O)N(Cc3ccc(N(C)C)cc3)Cc3ccco3)oc2c1C | inactive: -15.7%
O=C(Nc1ccc(Br)cc1)c1cc(S(=O)(=O)NC2CCCC2)ccc1F | inactive: -12%
CCN(c1ccccc1)S(=O)(=O)c1nnc(NC(=O)C2CCCCC2)s1 | inactive: -8.05%
COc1ccc2c(c1)c(N1CCCC1=O)c(C(=O)Nc1cc(C)c(Cl)cc1OC)n2C | inactive: -23%
CCn1c(=O)c2sccc2n2c(CCC(=O)Nc3ccc(F)cc3)nnc12 | inactive: -2.83%
COc1cc(-n2c(=O)c3ccccc3n(Cc3cccc(Cl)c3)c2=O)cc(OC)c1OC | inactive: -1.4%

Structure (SMILES) | activation
CCOC(=O)c1c(C)[nH]c(CCC(=O)NCc2cc(OC)c(OC)c(OC)c2)c1C | inactive: -13.1%
Cc1cc2oc(=O)c(CC(=O)O)c(C)c2c2occ(-c3ccccc3)c12 | inactive: -20.3%
Cc1ccc(C)c(Cn2c(=O)n(-c3ccccc3)c(=O)c3c4c(sc32)CCCC4)c1 | inactive: 0.156%
COc1ccc(CCN2C(=O)N(c3cccc(OC)c3)C(=O)C2CC(=O)Nc2ccccc2)cc1 (configuration not stated) | inactive: -16.5%
COc1ccc(-c2onc(C)c2C)cc1S(=O)(=O)NCCc1ccccc1 | inactive: 9.41%
Oc1c(C(c2ccccc2)N2CCCC2)sc2nc(-c3ccco3)nn12 (configuration not stated) | inactive: -9.59%
CCOC(=O)Cc1ccc(NC(=O)NC(C)c2c(-n3cccc3)sc(C)c2C)cc1 (configuration not stated) | inactive: -0.955%
CCNC(=O)CC1C(=O)N(c2ccc(C)cc2)C(=O)N1CCOC (configuration not stated) | inactive: 0.748%
COc1ccc(CNC(=O)CN2C(=O)CCn3nc(-c4cn(C)c5ccccc45)cc32)cc1 | inactive: -16.1%
COc1nnc(-c2ccc(N3CCCCC3)c(NC(=O)c3ccc(C)cc3)c2)c2ccccc12 | inactive: -0.188%
O=C(c1cccc([N+](=O)[O-])c1)N1CCN(c2ccc(Nc3ccccc3)nn2)CC1 | inactive: -9.23%
CCOC(=O)c1c(S(=O)(=O)N2CCC(C(=O)Nc3ccc(C)c(Cl)c3)CC2)c(C)n(C)c1C | inactive: -5.36%
CC[N+](CC)(CC)CCOC(=O)C(C1CCCC1)C1CCCC1 | inactive: -6.38%
O=C(c1ccc2c(c1)N(Cc1cccc(Cl)c1)C(=O)c1ccccc1S2=O)N1CCC(Cc2ccccc2)CC1 (configuration not stated) | inactive: -17.6%
COc1ccc(OC)c(NC(=O)CSC2=Nc3ccccc3C3=NC(CC(=O)NCCc4ccccc4)C(=O)N23)c1 (configuration not stated) | inactive: -11%
CCOc1cccc(CNCCCSc2nnnn2C)c1 | inactive: -10.9%
CCOc1ccc(NC(=O)CCCn2c(C)c3cnn(-c4ccccc4)c(=O)c3c2C)cc1 | inactive: -13.8%
CCn1nc(C)c2c(-c3ccccc3)cc(=O)n(C(C)C(=O)NCCc3ccc(Cl)cc3)c21 (configuration not stated) | inactive: -18.1%
O=S(=O)(c1ccc(-c2cnc(C3CC3)o2)cc1)N1CCN(c2ccc(F)cc2)CC1 | inactive: -17.1%
COc1cc(NC(=O)C2CCN(c3cnccn3)CC2)cc(OC)c1 | inactive: -9.75%
O=C(Cn1c(=O)n(Cc2ccco2)c(=O)c2oc3ccccc3c21)Nc1ccccc1 | inactive: -12.3%
COc1cccc(-c2cn3c(n2)sc2cc(C(=O)NC4CCCCC4)ccc23)c1 | inactive: -22%
CCN(CCCNC(=O)c1cc2c(=O)n(C)c3ccccc3c2s1)c1ccccc1 | inactive: -7.42%
